# Measurements: PubChem BioAssay AID1030 (National Center for Advancing Translational Sciences (NCATS), 2008)
# Among all 220,000 compounds or so, about 16,000 (7.3%) were called active. The inconclusive results got no clear call from the source; some entries with a clear call stand among them for comparison. Calls come from the whole dose curve; as a rule, active = well fitted inhibition curve with a large enough effect (not every such curve was filed as active); inconclusive = small, poorly fitted or top-dose-only effect, or another doubt; inactive = no such curve, though single readings can be large or run the other way. No potency is given beside an inconclusive call; the fits are too rough.
# Biological target: Aldehyde dehydrogenase 1A1 (Homo sapiens) (UniProt P00352)
# Chain of UniProt P00352 (P00352 whole entry, looked up): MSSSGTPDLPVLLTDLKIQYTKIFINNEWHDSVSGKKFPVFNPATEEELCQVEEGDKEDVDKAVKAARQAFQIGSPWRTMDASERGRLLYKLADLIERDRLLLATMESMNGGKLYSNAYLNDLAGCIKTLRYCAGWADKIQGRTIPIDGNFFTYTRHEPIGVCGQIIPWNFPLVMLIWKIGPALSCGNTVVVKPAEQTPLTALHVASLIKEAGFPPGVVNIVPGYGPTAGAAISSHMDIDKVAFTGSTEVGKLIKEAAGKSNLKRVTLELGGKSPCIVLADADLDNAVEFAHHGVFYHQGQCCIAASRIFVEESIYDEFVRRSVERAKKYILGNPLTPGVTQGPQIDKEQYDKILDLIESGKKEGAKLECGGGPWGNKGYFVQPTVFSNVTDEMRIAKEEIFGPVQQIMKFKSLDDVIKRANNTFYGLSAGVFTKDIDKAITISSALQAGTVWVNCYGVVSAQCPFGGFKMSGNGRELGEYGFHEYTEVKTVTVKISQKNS
# Assay: qHTS Assay for Inhibitors of Aldehyde Dehydrogenase 1 (ALDH1A1);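 for activity, negative = inhibition: plate controls were no enzyme wells and a reference inhibitor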
# Conditions: Purified ALDH1A1, NADH fluorescence, propionaldehyde substrate; series mostly up to 75.3 µM
# Potency is the fitted concentration of half-maximal effect; tags give direction and shape of the fitted curve.
SMILES,Potency,"activity, negative = inhibition"
Cc1cc(C)nc(/N=C(/NC(=O)Nc2ccc(Cl)c(Cl)c2)Nc2ccccc2)n1,inactive,
CN(C)c1oc(-c2ccccc2Cl)nc1P(=O)(c1ccccc1)c1ccccc1,"inconclusive [inhibitor, single point]",
CC(C)(C)C1CCc2c(sc(NC(=O)CSc3nnc(-c4ccccc4)o3)c2C#N)C1 (stereo not drawn),"inconclusive [inhibitor, partial curve, poor fit]",
COc1cc(/C=N/NC(=O)CCc2ccccc2)ccc1O,"inconclusive [inhibitor, single point]",
O=c1c(Cl)c(N/N=C/c2ccc(Br)cc2)cnn1-c1ccccc1,"inconclusive [inhibitor, single point]",
Cc1ccc(S(=O)(=O)N2CCSC2c2ccco2)cc1 (stereo not drawn),"inconclusive [inhibitor, single point]",
CCCCNc1nnc(CCn2nc(C)c(Br)c2C)s1,inactive,
CCOC(=O)N1CCN(C(=O)c2cc3c(=O)[nH]c4ccccc4c3s2)CC1,"inconclusive [inhibitor, single point]",
CC1=CC(c2ccccc2)=Nc2ccc(C)cc2N1,"inconclusive [inhibitor, single point]",
CC(C)Cn1c(N)c(C(=O)COC(=O)c2ccccc2Cl)c(=O)n(C)c1=O,"inconclusive [inhibitor, single point]",
CCc1nc(N2CCCC(C)C2)c2oc3ccccc3c2n1 (stereo not drawn),"inconclusive [inhibitor, partial curve]",
CCCCC(=O)NNC(=S)NC(=O)c1ccc(C)cc1,active: 25.1 µM,
CCOC(=O)N1CCN(C(=O)c2ccc3c(c2)N(Cc2ccc(C)cc2)CCS3)CC1,"inconclusive [inhibitor, partial curve]",
Cc1c(NC(=O)Nc2ccccc2Cl)sc(=S)n1C,"inconclusive [inhibitor, single point]",
COC(=O)C1=C(C)NC(C)=C(C(=O)OC(C)C)[C@H]1c1cccc2nonc12,inactive,
CCc1c(C)nc(N)n2c(SCC(=O)N3CCN(c4ccccc4OC)CC3)nnc12,inactive,
COc1ccc(C2=Nn3c([n+](C)c4ccccc43)SC2)cc1,"inconclusive [inhibitor, single point]",
O=C(NNC(=S)NC1CCCCC1)c1ccc(Cl)s1,inactive,
Cc1ccc(-c2nnc3sc(C4COc5ccccc5O4)nn23)cc1 (stereo not drawn),"inconclusive [inhibitor, single point]",
O=C(N/C(=C/c1cn(-c2ccccc2)nc1-c1ccccc1)C(=O)N1CCOCC1)c1ccc(Cl)cc1Cl,active: 15.8 µM,
O=C(NC(=S)NNC(=O)c1ccccc1F)c1cccnc1,active: 7.08 µM,
Cc1ccc(Cn2nnc3c(=O)n(CC(=O)N4CCCCC4)cnc32)cc1,inactive,
CCOC(=O)c1sc2cccc(F)c2c1N,"inconclusive [inhibitor, partial curve]",
O=C(/C=C/c1ccc(Cl)cc1)Nc1ccc(N2CCCCC2)cc1,inactive,
COc1ccccc1/C=C/CN1CC(C)OC(C)C1 (stereo not drawn),inactive,
CC12CCC(C(=O)Nc3cccc(Cl)c3)(C(Br)C1=O)C2(C)C (stereo not drawn),"inconclusive [inhibitor, single point]",

SMILES,Potency,"activity, negative = inhibition"
COc1ccccc1OCC(=O)NC1CCCCCC1,"inconclusive [inhibitor, single point]",
COc1ccc(C)cc1NC(=O)C1CCCN1C(=O)OCc1ccccc1 (stereo not drawn),inactive,
CC(=O)Nc1cccc(-c2csc(NCc3ccco3)n2)c1,active: 12.6 µM,
S=C1NCN(C2CCCCC2)CN1CCc1ccccc1,inactive,
CCOCC(=O)Nc1ccc(S(=O)(=O)N2CCOCC2)cc1,active: 10 µM,
Cc1cs/c(=N\N=C2CCCCC2)n1Cc1ccco1,"inconclusive [inhibitor, single point]",
CN(C)C(=O)/N=N/C(=O)N(C)C,"inconclusive [inhibitor, partial curve]",
CCOC(=O)N1CCN(c2c(NCc3ccccc3OC)c(=O)c2=O)CC1,"inconclusive [inhibitor, partial curve]",
CCCCC1=CC2=CC(=O)C(C)(OC(=O)CC)C(=O)C2=CN1CCc1c[nH]c2ccccc12 (stereo not drawn),,inactive: -4.4% [at 13.5 µM]
O=C(CSc1ccc(-c2cccs2)nn1)N1CCCCCC1,inactive,
Cc1ccc(C)c(-n2cc(CN3CCN(C(=O)c4ncn[nH]4)CC3)c(-c3ccccc3)n2)c1,inactive,
CC(C)(C)C1CCC(=NNc2ncc(C(F)(F)F)cc2Cl)CC1 (stereo not drawn),"inconclusive [inhibitor, partial curve]",
CC1=C(C(=O)OC(C)C)C2(O)C(=O)c3ccccc3C2(O)N1 (stereo not drawn),active: 12.6 µM,
COc1cccc(N2C(=O)C3CCCN3C2c2ccc(N(C)C)cc2)c1 (stereo not drawn),active: 1 µM,
O=C(Nc1ccccc1F)c1ccc(COc2ccc(Cl)cc2Cl)o1,active: 28.2 µM,
CC(=O)N1CCN(c2ccc(NCc3ccc(C)cc3)cc2)CC1,"inconclusive [inhibitor, single point]",
O=C(COC(=O)c1ccc([N+](=O)[O-])s1)NC(c1ccccc1)c1ccccc1,active: 22.4 µM,
COc1ccccc1NC(=O)c1ccc2c(c1)nnn2C,inactive,
O=C1C2C3C=CC(CC3)C2C(=O)N1/N=C/c1ccco1 (stereo not drawn),"inconclusive [inhibitor, single point]",
Nc1cc(Cl)ccc1Oc1ccc(Cl)cc1,active: 1.58 µM,
O=C(COC(=O)c1cccnc1Nc1cccc(C(F)(F)F)c1)NC1CCS(=O)(=O)C1 (stereo not drawn),inactive,
COCCn1nnnc1C(c1ccc(Cl)cc1)N1CCSCC1 (stereo not drawn),"inconclusive [inhibitor, single point]",
O=C(CCc1ccccc1)NNC(=O)c1ccco1,inactive,
COC(=O)C1=CN(Cc2cccs2)C=C(C(=O)OC)C1c1cccc(O)c1,"inconclusive [inhibitor, partial curve]",
CC(OC(=O)CNC(=O)c1ccc2c(c1)OCO2)C(=O)NCCC1=CCCCC1 (stereo not drawn),inactive,
COc1ccc(-c2nc(-c3ccccc3)c(NCc3ccccc3)o2)cc1,inactive,

SMILES,Potency,"activity, negative = inhibition"
CCOC(=O)c1c(NC(=O)c2cc3n(n2)C(C(F)(F)F)CC(c2ccccc2)N3)sc(C)c1C (stereo not drawn),"inconclusive [inhibitor, single point]",
CC(C)SCc1cc(N2CCCC2)nc(-c2ccccc2)n1,"inconclusive [inhibitor, single point]",
O=C(ONC1=NCCCCC1)c1ccc([N+](=O)[O-])cc1,inactive,
CCn1c(CSc2nc(C)cc(C)n2)nnc1SCC(N)=O,inactive,
COc1ccc(C(=O)NCC(c2cccnc2)N2CCN(c3ccc(F)cc3)CC2)cc1OC (stereo not drawn),"inconclusive [inhibitor, single point]",
O=C1CC(c2ccco2)Cc2nc(NCC3CCCO3)ncc21 (stereo not drawn),"inconclusive [inhibitor, single point]",
CCCc1[nH]nc2c1C(c1ccc(Br)s1)C(C#N)=C(N)O2 (stereo not drawn),"inconclusive [inhibitor, single point]",
Cc1ccc(-c2cc(C(=O)OCC(=O)Nc3cc(C)on3)c3ccccc3n2)c(C)c1,inactive,
CSc1ccc(C(=O)C2CCCN(Cc3cccn3-c3cccnc3)C2)cc1 (stereo not drawn),"inconclusive [inhibitor, single point]",
COc1cccc(C(=O)CC2c3c(c(Br)c4c(c3OC)OCO4)CCN2C)c1 (stereo not drawn),active: 7.94 µM,
CC(=O)c1ccc(NC(=O)C2CCCNC2=O)cc1 (stereo not drawn),"inconclusive [inhibitor, single point]",
CCn1c2ccccc2c2nc3ccccc3nc21,"inconclusive [inhibitor, single point]",
O=C(NCC(=O)N(CC1CCCO1)C(C(=O)NC1CCCCC1)c1ccccc1)c1ccco1 (stereo not drawn),inactive,
O=C(CCc1ccc(S(=O)(=O)NCCc2ccccc2)cc1)Nc1ccc2c(c1)OCCO2,inactive,
CC(NC(=O)/C=C/c1ccco1)c1nc2ccccc2n1Cc1c(Cl)cccc1Cl (stereo not drawn),"inconclusive [inhibitor, partial curve, poor fit]",
CC(=O)c1cccc(NC(=O)Nc2cc3sccc3n2C)c1,"inconclusive [inhibitor, single point]",
CCC(C)C(NC(=O)OC(C)(C)C)C(=O)NC(Cc1ccccc1)C(=O)OC (stereo not drawn),inactive,
O=C(N/N=C1\CCCc2ccccc21)c1cccc(Br)c1,inactive,
Cc1ccnc(NC(=O)CSc2nnc3c(n2)[nH]c2ccccc23)c1,inactive,
O=S(=O)(CCSc1nc2ccccc2o1)Cc1ccccc1,active: 20 µM,
c1ccc(-c2cc3c(N4CCCCC4)ncnc3s2)cc1,"inconclusive [inhibitor, single point]",
N#Cc1ccc(NC(=S)NCCN2CCOCC2)cc1,inactive,
CN(CCC#N)C(=O)COC(=O)c1ccc2c(=O)n3c(nc2c1)CCC3,"inconclusive [inhibitor, partial curve]",
O=C(c1ccco1)N1CCC[C@@]2(CCN(c3ncccn3)C2)C1,"inconclusive [inhibitor, partial curve]",
Clc1cccc2c1CCN(Cc1nc(-c3cnccn3)no1)C2,"inconclusive [inhibitor, single point]",
Cc1cc(-c2ccccc2)nc2c(Br)c(=O)[nH]n12,"inconclusive [inhibitor, partial curve]",
